Measured values reported in PubChem BioAssay AID1346428 (National Center for Advancing Translational Sciences (NCATS), 2018).
Several values for one entry are separate records, joined by “and”; a condition that tells them apart may be missing. Equal entries are not always repeated. The campaign covered roughly 48,000 compounds. About 1,200 (2.5%) were called active. Roughly 2% stayed inconclusive and do not appear here.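 Rule for the calls: active = activation of at least 60% and not above a set upper limit (about 1 call in 100 departs from these limits); inconclusive = activation of 40% to 60%, or above that upper limit; inactive = activation under 40%.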 Some of the results follow.

Target: Probable G-protein coupled receptor 32 (Homo sapiens) (UniProt O75388)
Assay: qHTS for Agonists of Human Resolvin D1 Receptor DRV1; note: 0% is about no effect
Conditions: CHO-K1 GPR32 beta-arrestin PathHunter luminescence, 90 min; at 76.9 µM; active compounds read high; zero percent set by DMSO-only wells
How it was run: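 Cells are plated overnight, treated with compounds in DMSO for 90 minutes at 37 °C, and developed with PathHunter detection reagent for 1 hour before luminescence is read; signal reflects beta-arrestin binding to GPR32 in engineered CHO-K1 cells.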

Sequence of UniProt O75388 (O75388 whole entry, looked up): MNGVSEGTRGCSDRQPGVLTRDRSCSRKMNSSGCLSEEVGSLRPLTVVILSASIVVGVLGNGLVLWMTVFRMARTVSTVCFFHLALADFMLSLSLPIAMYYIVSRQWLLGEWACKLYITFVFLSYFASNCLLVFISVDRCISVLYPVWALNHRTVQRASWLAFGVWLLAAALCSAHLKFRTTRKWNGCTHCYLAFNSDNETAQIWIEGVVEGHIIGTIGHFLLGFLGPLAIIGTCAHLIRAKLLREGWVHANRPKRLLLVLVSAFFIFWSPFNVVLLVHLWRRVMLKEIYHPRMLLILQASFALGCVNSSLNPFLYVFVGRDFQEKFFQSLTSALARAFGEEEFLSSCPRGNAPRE

activation, inactive:
Cc1ccc(-c2nc3ccccn3c2Nc2ccc3c(c2)OCO3)cc1 -21.8%, COc1ccnc2c1CCCCC2S(=O)c1nc2ccccc2[nH]1 (stereo not given) 9.92%, Cc1ccc(CNC(=O)CCc2c(C)nn(-c3ccc(N4CCCCC4)nn3)c2C)cc1 -5.71%, COc1ccc(C(=O)c2cn(Cc3ccc(F)cc3)c3ccc(C)cc3c2=O)cc1 -16.4%, CN1CCC(=C2c3ccccc3CCc3cccnc32)CC1 -31.8%, O=C(NC1CCCCCC1)C1CCN(C(=O)N2CCOc3ccccc32)CC1 -13.6%, Cc1ccc(S(=O)(=O)NCC(c2ccc(N(C)C)cc2)N2CCOCC2)cc1 (stereo not given) -22.4%, Cc1ccc(S(=O)(=O)NCCc2nnc3ccc(SCc4ccccc4C)nn23)cc1 -24.8%, COc1ccc(N2CCN(C(=O)Cn3cnc4nc5c(cc4c3=O)CCCC5)CC2)cc1 -9.98%, CCOC(=O)c1cccc(NC(=O)c2cc(CN3CCCC3)on2)c1 -0.706%, COc1ccc(/C=C\c2onc(C)c2S(=O)(=O)N2CCC(C(=O)Nc3ccccc3OC)CC2)cc1 -21.3%, COc1ccc(OC)c(NC(=O)CSc2c3c(nc4ccccc24)CCCC3)c1 -25.1%, CC1CCN(S(=O)(=O)c2ccc3c(c2)N(CC(=O)NC(C)C)C(=O)CS3)CC1 -2.87%, CCS(=O)(=O)N1N=C(c2ccc(C)cc2)CC1c1cc2ccc(OC)cc2nc1Cl (stereo not given) 2.49%, COc1ccccc1OC(C)C(=O)NCC1(N2CCOCC2)CCCCC1 (stereo not given) -17.5%, Cc1ccc(Cn2cccc2C2=NC(C)(C)CO2)cc1 4.17%, CCc1nn(CCCC(=O)NCc2ccccc2Br)c(=O)c2cc3occc3n12 -10.8%, Cc1ccc(OC(=O)c2cc(-c3ccc4c(c3)OCCO4)on2)c(C)c1 -19.8%, CCCC(=O)N1c2ncnn2C2(CCCCC2)[C@@H]2CCCC[C@@H]21 2.62%, COc1ccc(NC(=O)CCNS(=O)(=O)c2cccc3nonc23)cc1 -19.2%, CCCCOc1ccc(-c2nonc2NC(=O)c2ccco2)cc1 29.8%, Cc1ccc(OCC(=O)NCC2(N3CCN(C)CC3)CCCCC2)cc1C -4.74%, CSc1ccc(CCNC(=O)C2CCN(c3nc4ccccc4nc3C(F)(F)F)CC2)cc1 -17.2%, O=C(Cn1c(=O)n(Cc2ccc3c(c2)OCO3)c(=O)c2oc3ccccc3c21)Nc1ccccc1 -15.9%, CCc1ccc(-c2nc3ccc(Br)cc3c(C(=O)O)c2C)s1 -24.7%, Cc1ccccc1CNC(=O)C1CCN(c2nnc(C)c3c(C)n(-c4ccccc4)nc23)CC1 -4.73%, CCn1c(C(=O)NCc2cccc(Br)c2)cc2oc3ccccc3c21 -27.4%, COC(=O)c1ccc(NC(=O)c2c(NCc3ccc(C)o3)sc3c2CCCC3)cc1 1.66%, CN1C(=O)C2(c3ccccc31)N(c1ccccc1)C(=O)CS2(=O)=O (stereo not given) -4.19%, CCc1nnc(NC(=O)c2cc(=O)c3cc(C)c(C)cc3o2)s1 -9.96%, COc1cc(-c2noc(-c3cc4cc(F)ccc4oc3=O)n2)cc(OC)c1OC -7.52%, Cc1cc(C)c2oc(C(=O)Nc3sc4c(c3C(=O)NCc3ccco3)CCC4)cc(=O)c2c1 5.75%, C[C@@H]1CCN(C(=O)[C@H](CCCN=C(N)N)NS(=O)(=O)c2cccc3c2NC[C@H](C)C3)[C@@H](C(=O)O)C1 -5.64%, COc1ccc(-c2nc3scc(CCNS(=O)(=O)c4c(C)noc4C)n3n2)cc1 -3.06%, Cc1ccc(NC(=O)/C=C/c2ccccc2)c(Br)c1 35.6%, CN1CCN(C(=O)C(=O)Nc2c3c(nn2-c2ccc(F)cc2)CSC3)CC1 -11.4%, Cc1ccc(C)c(CN2C(=O)c3ccccc3S(=O)(=O)c3ccc(C(=O)Nc4ccccc4C(F)(F)F)cc32)c1 -11%, CCN(CC)CCN(C(=O)c1ccco1)c1nc2ccc(Cl)cc2s1 45.3%, Cn1c(SCc2ccc(F)cc2)nc2ccc(C(=O)NCc3ccc(F)cc3)cc21 2.74%, Cc1nn(CC(=O)NC2CC2)c(=O)c2cc3ccccc3n12 5.16%, Nc1ccn([C@H]2CC[C@@H](CO)O2)c(=O)n1 5.14% and 7.57%, COCCn1c(SCC(=O)c2cc(C)ccc2C)nc2cc(C(=O)NC3CCCC3)ccc2c1=O 0.748%, Cc1cc(C)cc(NC(=O)c2cc(S(=O)(=O)N3CCCCCC3)cn2C)c1 -27.4%, Cc1ccc(-n2nc3c(N4CCC(C(=O)NC(C)C)CC4)nnc(C)c3c2C)cc1 -8.62%, Cc1ccc(C2Nc3ccccc3-n3c(-c4ccccc4)c4c(=O)n(C)c(=O)n(C)c4c32)o1 (stereo not given) -7.09%, Cc1ccc(NC(=O)Cn2c(-c3ccc4c(c3)OCO4)cn(-c3ccccc3)c2=O)cc1C -21.1%, CCC1CN(C(=O)N2CCC(C(=O)NCc3ccc(OC)cc3OC)CC2)c2cc(C)ccc2O1 (stereo not given) -20.2%, CCOc1ccc(-c2nc(SC(C(C)=O)C(=O)N(C)C)c3c(=O)n(C)c(=O)n(C)c3n2)cc1 (stereo not given) 12.9%, Cc1c(Cl)cccc1-n1ncc(C(=O)Nc2ccc3c(c2)OCCO3)c1C1CCN(C(=O)OC(C)(C)C)CC1 -28.7%, COc1ccc(-c2nn(C)c3sc(C(=O)Nc4cccc(F)c4)cc23)cc1OC -7.25%, CCc1ccc(NC(=O)c2ccc3c(c2)nnn3CC)cc1 12.9%, Cc1ccc2cc3cc(C(=O)Nc4ccc(F)cc4Cl)oc3nc2c1 -7.96%, Cc1ccccc1OCC(=O)OCc1cc(=O)n2ccsc2n1 8.24%, CCN(CC)S(=O)(=O)c1ccc2c(c1)N(CC(=O)N1CCN(c3cccc(C(F)(F)F)c3)CC1)C(=O)CO2 -20.5%, COc1ccccc1CNc1ccc(-c2nc(C(C)C)no2)cc1[N+](=O)[O-] -22.4%, Cc1ccc(CCNC(=O)CN(c2ccc(C)cc2)S(=O)(=O)c2c(C)noc2C)cc1 -6.9%, CN(C)c1ccc(CNc2nc(-c3ccco3)nn2S(=O)(=O)c2ccc3ccccc3c2)cc1 -25.8%, O=C(CSc1nc2c(c(=O)[nH]1)CCC2)Nc1ccccc1F 0.82%, Cc1cc(C)c2c(CC(=O)N(Cc3ccc(N(C)C)cc3)Cc3ccco3)coc2c1 -9%, CCOc1ccc(CNC(=O)c2cc3oc4ccccc4c3n2C)cc1 -16.8%, Cc1ccc(C)c(NC(=O)Cn2cc(C(=O)c3ccncc3)c(=O)c3cc(F)ccc32)c1 -2.22%, COc1ccc(NC(=O)Cn2cnc3sc(C)c(S(=O)(=O)N4CCN(C)CC4)c3c2=O)cc1OC -4.41%, COc1cccc(-c2nc(-c3ccc(-c4ccccc4)nc3OC)no2)c1 -6.36%, CCOC(=O)C1CCN(C(c2ccccc2OC)c2c(O)cc(C)n(CCOC)c2=O)CC1 (stereo not given) -4.33%, Cc1ccc(C(=O)Nc2ccc(Cl)c(-c3nc4ncccc4o3)c2)c(C)c1 1.42%, Cc1ccccc1OCc1ccc(-c2nc(C#N)c(NCCCN(C)C)o2)o1 -1.91%, Cn1nnnc1SCCCNCc1cccc(OCc2ccc(Cl)cc2)c1 -0.582%, CN(C(=O)C(Cl)Cl)c1ccc(OC(=O)c2ccco2)cc1 -0.0861%, O=C(Nc1ccc(F)cc1)[C@H](Cc1ccccc1)N1Cc2ccccc2C1=O -20.7%, CCOc1ccccc1NC(=O)C1CCN(S(=O)(=O)c2c(C)noc2/C=C/c2ccc(C)cc2)CC1 19.7%, CCOc1ccc(C(=O)NCCn2cc(SCC(=O)NCCc3ccc(OC)c(OC)c3)c3ccccc32)cc1 27.8%, COC(=O)c1ccc(Nc2ncnc3c2nc2n3CCCC2)cc1 -4.92%, COc1cc(/C=C/C(N)=O)cc(OC)c1OC -26%, COc1ccccc1OCCn1cc(C(=O)c2cccs2)c2ccccc21 -27.9%, O=C(c1cc2c(=O)oc3ccccc3c2s1)N1CCN(c2cccc(Cl)c2)CC1 30.2%, COc1ccc(Cl)cc1NC(=O)Cn1ccn(Cc2ccc(C)cc2)c(=O)c1=O -11.3%, Cc1cccc(-n2c(SCC(N)=O)nc3c(oc4ccccc43)c2=O)c1 -8.47%, COc1ccccc1-c1nc(-c2ccc(Br)o2)no1 -14.2%, CCOC(=O)N1CCN(C(=O)CN(c2cccc(Cl)c2C)S(=O)(=O)c2ccc(C)cc2)CC1 -3.8%, O=C(Nc1ccccc1)c1cccc2c(=O)c3c([nH]c12)CCCC3 7.78%, Cc1noc(Cn2c(=O)c3cc4c(cc3n(CC(=O)Nc3cccc(Cl)c3)c2=O)OCO4)n1 3.78%, O=C(Nc1ccc(SC(F)F)cc1)c1cc(-c2ccc3c(c2)OCCO3)on1 -6.19%, COc1ccc(NC(=O)[C@@H](c2ccccc2)N2Cc3ccccc3C2=O)cc1OC -3.24%, CC(=O)Nc1nonc1-c1nnc(SCC(=O)Nc2ccc(C)cc2C)n1C -18.9%, CCOc1ccc(CNC(=O)c2c(C)nn(-c3ccc(F)cc3)c2-n2cccc2)cc1 -18.3%
